# Results taken from PubChem BioAssay AID2147 (National Center for Advancing Translational Sciences (NCATS), 2009).
# In all, about 230,000 compounds went through this assay and about 3,600 (1.6%) were called active. The shares of active, inactive and inconclusive entries below differ from those in the screen. Calls come from the whole dose curve; as a rule, active = well fitted inhibition curve with a large enough effect (not every such curve was filed as active); inconclusive = small, poorly fitted or top-dose-only effect, or another doubt; inactive = no such curve, though single readings can be large or run the other way. Potencies of inconclusive entries are doubtful fits and often do not repeat.
# Target: Lysine-specific demethylase 4E (Homo sapiens) (UniProt B2RXH2)
# Sequence of UniProt B2RXH2 (B2RXH2 whole entry, looked up, the tested form may be a part): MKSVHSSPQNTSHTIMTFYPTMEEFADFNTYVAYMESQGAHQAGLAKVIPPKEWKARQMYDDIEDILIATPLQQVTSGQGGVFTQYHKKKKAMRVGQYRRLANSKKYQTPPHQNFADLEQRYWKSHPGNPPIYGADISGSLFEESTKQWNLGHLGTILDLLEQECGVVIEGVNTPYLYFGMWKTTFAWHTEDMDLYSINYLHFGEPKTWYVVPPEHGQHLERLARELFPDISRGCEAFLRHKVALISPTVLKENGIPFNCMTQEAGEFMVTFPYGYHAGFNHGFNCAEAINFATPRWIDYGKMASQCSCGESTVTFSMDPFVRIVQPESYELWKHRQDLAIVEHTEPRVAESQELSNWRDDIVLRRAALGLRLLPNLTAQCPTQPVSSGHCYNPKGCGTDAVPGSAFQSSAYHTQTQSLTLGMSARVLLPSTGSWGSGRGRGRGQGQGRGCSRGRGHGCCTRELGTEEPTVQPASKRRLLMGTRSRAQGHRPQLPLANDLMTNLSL
# Assay: qHTS Assay for Inhibitors of Human Jumonji Domain Containing 2E (JMJD2E)
# Details: JMJD2E catalytic domain, FDH-coupled NADH fluorescence (FDH is formaldehyde dehydrogenase); series mostly up to 57.1 µM; activity change, negative = inhibition: at the top concentration
# Note: nearly all actives have a fitted effect of over 50% in size.
# Potency is the fitted concentration of half-maximal effect; tags give direction and shape of the fitted curve.
# 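Throughout, for activity change, negative = inhibition: 0% = wells with enzyme and -100% = buffer wells without enzyme.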
Structure (SMILES),Potency,"activity change, negative = inhibition"
Cc1ccc(-c2nc3ccccc3s2)cc1NC(=O)c1cc(-n2cnnc2)ccc1Cl,"inconclusive: 12.6 µM [inhibitor, partial curve]",–
COC/C=C/C1=CC2=CC(=O)C(C)(OC(=O)c3cnc4ccccc4n3)C(=O)C2=CN1C(CO)CO (stereo not drawn),"inconclusive: 25.1 µM [inhibitor, partial curve]",–
C=CCN(CC=C)CCOc1ccccc1F,–,inactive: -0.959%
CCOc1ccc(C(=O)C(C)=O)c(OCC)c1,"inconclusive: 39.8 µM [inhibitor, single point]",–
CCOC(=O)c1cnc2c(-c3ccc(Cl)cc3)c(C)nn2c1N,"inconclusive: 35.5 µM [inhibitor, partial curve]",–
C=CCNc1nc(N2CCOCC2)c(C#N)c2c1CN(C)CC2,"inconclusive: 20 µM [inhibitor, partial curve]",–
N#CC1=C(N)C(C#N)(C#N)C(c2ccc[nH]2)C2CCCC=C12 (stereo not drawn),"inconclusive: 28.2 µM [inhibitor, single point]",–
Cc1ccc(-n2c(O)c(/C=N/NC(=O)C3COc4ccccc4O3)c3ccccc3c2=O)cc1 (stereo not drawn),"inconclusive: 25.1 µM [inhibitor, partial curve]",–
O=C(OCc1cccc([N+](=O)[O-])c1)c1ccc2ccccc2n1,"inconclusive: 22.4 µM [inhibitor, single point]",–
CC1(C)Cc2c(sc(NC(=O)COc3cccc4ccccc34)c2C#N)C(C)(C)N1,"inconclusive: 39.8 µM [inhibitor, single point]",–
O=c1nc2ccccc2c2n1C[C@H](CN1CCN(c3ccccc3)CC1)N2,"inconclusive: 7.94 µM [inhibitor, full curve]",–
CC(=O)Nc1ccccc1C(=O)N1CCN(c2cccc(C)c2C)CC1,"inconclusive: 39.8 µM [inhibitor, single point]",–
O=C1NC2(CCCC2)C(=O)N1Cc1cc(=O)n2ccsc2n1,"inconclusive: 39.8 µM [inhibitor, single point]",–
N#CC1=C(SCC(=O)Nc2cccc3cccnc23)NC(=O)C(C#N)C12CCCCC2 (stereo not drawn),–,inactive: -8.09%
NC(=O)NC(=O)CSc1cccc(C(F)(F)F)c1,"inconclusive: 39.8 µM [inhibitor, single point]",–
COc1cccc(-c2cc(C(=O)N3CC4(C)CC3CC(C)(C)C4)no2)c1 (stereo not drawn),–,inactive: -9.36%
CCN(CC)CCN1C(=O)c2ccccc2NC1c1ccc(F)cc1 (stereo not drawn),"inconclusive: 28.2 µM [inhibitor, partial curve]",–
O=C(NCCCn1ccnc1)C(Cc1ccccc1)N1C(=O)c2ccccc2C1=O (stereo not drawn),–,inactive: -9.87%
CC(=O)Oc1ccccc1C1OC(=O)c2ccccc2N1C(C)=O (stereo not drawn),"inconclusive: 28.2 µM [inhibitor, single point]",–
CN1C(=O)NC(c2ccc(O)cc2)C2=C1CN(c1ccccc1)C2=O (stereo not drawn),"inconclusive: 22.4 µM [inhibitor, partial curve]",–
CC(=O)NC(c1ccccc1)c1c(O)ccc2ccccc12 (stereo not drawn),"inconclusive: 39.8 µM [inhibitor, single point]",–
Cc1cccc(NC(=S)NNC(=S)NCc2ccccc2)c1,–,inactive: 12.7%
Cc1cccc(N=Nc2c(C)c(C#N)c(O)[nH]c2=O)c1,–,inactive: -0.682%

Structure (SMILES),Potency,"activity change, negative = inhibition"
CCOc1cc2[nH]c(=O)n(Cc3ccc(C(=O)NCCCN4CCC(C)CC4)cc3)c(=O)c2cc1OCC,"inconclusive: 25.1 µM [inhibitor, partial curve]",–
C[C@@H]1CN(CCCn2c3ccccc3c3ccccc32)C[C@H](C)N1,"inconclusive: 39.8 µM [inhibitor, single point]",–
COc1ccc2nc(Nc3nc(C)c(C(C)=O)s3)sc2c1,"inconclusive: 3.16 µM [inhibitor, partial curve]",–
CCOc1ccc(S(=O)(=O)Nc2ccc(S(=O)(=O)N3CCCC3)cc2)cc1,–,inactive: 6.52%
O=C(N/N=C\c1ccccn1)C1COc2cc3ccccc3cc2O1 (stereo not drawn),–,inactive: -8.62%
CS(=O)(=O)c1nc(-c2ccco2)cc(C(F)(F)F)n1,"inconclusive: 28.2 µM [inhibitor, single point]",–
COc1cccc(C(=O)N=c2sc3cc(S(C)(=O)=O)ccc3n2C)c1,"inconclusive: 35.5 µM [inhibitor, partial curve]",–
NC(=O)c1sc2nc(N3CCOCC3)c3c(c2c1N)CCCC3,"inconclusive: 28.2 µM [inhibitor, partial curve]",–
O=C(NC1CCCC1)C(c1ccncc1)N(Cc1cccs1)C(=O)c1csnn1 (stereo not drawn),"inconclusive: 35.5 µM [inhibitor, single point]",–
C/C(CC(=O)Nc1cccc(C(F)(F)F)c1)=N\NC(=O)C1CCCCC1,–,inactive: -24.9%
COc1ccc(-c2cc(-c3nnc(COC(=O)CC4CC5CCC4C5)o3)c3ccccc3n2)cc1OC (stereo not drawn),"inconclusive: 31.6 µM [inhibitor, partial curve]",–
CCn1c(Cl)c(C=O)s/c1=N\S(=O)(=O)c1ccccc1,–,inactive: 6.06%
COc1cccc(/C=N/n2c(-c3cc(C)[nH]n3)n[nH]c2=S)c1OC,–,inactive: 7.48%
CCCCC(=O)Nc1cc(Cl)ccc1C(=O)O,"inconclusive: 35.5 µM [inhibitor, single point]",–
Cc1ccc(C)c(CSc2ncccc2C(=O)O)c1,"inconclusive: 5.62 µM [inhibitor, single point]",–
CNC(=S)N(CCc1ccccc1)Cc1cc2cc(OC)c(OC)cc2[nH]c1=O,"inconclusive: 35.5 µM [inhibitor, partial curve]",–
CC(C)Cc1nc2oc3c(=O)[nH]cnc3c2c2c1CCC2,"inconclusive: 28.2 µM [inhibitor, partial curve]",–
O=c1oc2c3c4c(cc2c2c1CCC2)OCCN4CCC3,"inconclusive: 28.2 µM [inhibitor, partial curve]",–
COC(=O)c1ccccc1NC(=O)Oc1ccc(F)cc1,"inconclusive: 31.6 µM [inhibitor, partial curve]",–
CCN(CC)S(=O)(=O)c1ccc(N2CCOCC2)c(NS(=O)(=O)c2ccc(C)c(C)c2)c1,–,inactive: -5.58%
Cc1cc(C)cc(OC(C)c2ccnc3nc(/N=C/N(C)C)nn23)c1 (stereo not drawn),"inconclusive: 28.2 µM [inhibitor, partial curve]",–
O=C1/C(=C/c2cccs2)Cc2ccccc21,"inconclusive: 39.8 µM [inhibitor, single point]",–
Cc1ccc(S(=O)(=O)NCCC(=O)Nc2nnc(C3CC3)s2)cc1C,–,inactive: -8.78%

Structure (SMILES),Potency,"activity change, negative = inhibition"
Oc1c(C(Nc2cccc(C(F)(F)F)c2)c2cccnc2)ccc2cccnc12 (stereo not drawn),"inconclusive: 35.5 µM [inhibitor, single point]",–
CCOC(=O)c1cc(-c2ccc(Cl)cc2)nc2c1c(=O)[nH]c(=O)n2CCOC,"inconclusive: 28.2 µM [inhibitor, partial curve]",–
COc1ccc(-c2[nH]c(-c3ccccc3)nc2SCC(=O)NC2CCCC2)cc1,"inconclusive: 35.5 µM [inhibitor, partial curve]",–
COc1ccccc1CNc1ncnc2ccc(-c3c(C)noc3C)cc12,"inconclusive: 39.8 µM [inhibitor, single point]",–
COc1c(CC=C(C)C)cc(C2CC(=O)c3c(O)cc(O)cc3O2)cc1CC=C(C)C (stereo not drawn),"inconclusive: 39.8 µM [inhibitor, single point]",–
O=C(c1ccncc1)N1C2C=CC(C2)C1(C(F)(F)F)C(F)(F)F (stereo not drawn),"inconclusive: 39.8 µM [inhibitor, single point]",–
COc1ccccc1-c1coc2cc(O)ccc2c1=O,"inconclusive: 28.2 µM [inhibitor, partial curve]",–
Cn1nc(C(F)(F)F)c(C#N)c1N1CCN(c2ccccn2)CC1,"inconclusive: 31.6 µM [inhibitor, single point]",–
CN(C)c1ccc(/C=N/NC(=O)C(O)c2ccc(Br)cc2)cc1 (stereo not drawn),"inconclusive: 28.2 µM [inhibitor, partial curve]",–
CCN(CC)CCNC(C(=O)Nc1cc(C(F)(F)F)ccc1Cl)c1ccccc1 (stereo not drawn),–,inactive: -2.7%
Cn1c(SCC(=O)Nc2ccc(NC(=O)c3cccs3)cc2)nnc1-c1ccncc1,"inconclusive: 35.5 µM [inhibitor, single point]",–
CC(=O)N[C@@H](Cc1c[nH]c2ccccc12)C(=O)O,"inconclusive: 35.5 µM [inhibitor, single point]",–
CC1CCCCN1CC(=O)Nc1ccc(N2CCCCCC2)cc1 (stereo not drawn),–,inactive: -5.3%
COc1cc2c(cc1OC)CN(C(=O)c1cc(S(=O)(=O)N3CCOCC3)ccc1Cl)CC2,"inconclusive: 28.2 µM [inhibitor, single point]",–
CN(C)CCNc1oc(/C=C/c2ccccc2)nc1C#N,"inconclusive: 14.1 µM [inhibitor, partial curve]",–
COc1ccc(Oc2coc3c(CN4CCOCC4)c(O)ccc3c2=O)cc1,"inconclusive: 25.1 µM [inhibitor, partial curve]",–
CC1CC(C)(C)CC2(C1)NC(=S)N(c1ccccc1)N2 (stereo not drawn),"inconclusive: 35.5 µM [inhibitor, single point]",–
CCN(CC)S(=O)(=O)c1ccc(C(=O)Nc2nnc(CSC)o2)cc1,"inconclusive: 39.8 µM [inhibitor, single point]",–
Cc1ccc2ccccc2c1NC(=O)Cn1nnc(-c2cccnc2)n1,–,inactive: -2.57%
N#C/C(=C\c1ccc(-c2ccccc2[N+](=O)[O-])o1)C(=O)Nc1nc(-c2cccs2)cs1,–,inactive: -1.64%
O=C(CN1C(=O)S/C(=C/c2cccnc2)C1=O)N1CCOCC1,–,inactive: -1.14%
COC(=O)Cn1c(=NC(=O)c2cc(OC)c(OC)c(OC)c2)sc2cc(OC)ccc21,"inconclusive: 12.6 µM [inhibitor, partial curve]",–
